# The list shows a part of the results. Most values come without repeats; read them as rough.
# What was measured:
# Assay in all cases: cell count relative to DMSO control; melanoma cells; higher = more viable cells
# Details in all cases: library dose: standard library concentration; 72 h
# G361 = test system: G361
# IPC-298 = test system: IPC-298
# IST-MEL1 = test system: IST-MEL1
# LB2518-MEL = test system: LB2518-MEL
# LOXIMVI = test system: LOXIMVI
# MEL-HO = test system: MEL-HO
# MZ2-MEL = test system: MZ2-MEL
# MeWo = test system: MeWo
# RPMI7951 = test system: RPMI7951
# RVH-421 = test system: RVH-421
# 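Also: cells treated in 1,536-well plates, then fixed and DAPI-stained, with nuclei counted from automated high-throughput microscope images.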
compound,measurement,setting,value
"Cc1ccc(Nc2nccc(N(C)c3ccc4c(C)n(C)nc4c3)n2)cc1S(N)(=O)=O [Pazopanib] + Cn1cncc1[C@@](N)(c1ccc(Cl)cc1)c1ccc2c(c1)c(-c1cccc(Cl)c1)cc(=O)n2C [tipifarnib] (first compound 2 µM, partner dose 0.05 µM)",cell count,G361,65.5%
same,cell count,IPC-298,84.6%
same,cell count,IST-MEL1,83.6%
same,cell count,LB2518-MEL,56.6%
same,cell count,LOXIMVI,71.8%
same,cell count,MEL-HO,100%
same,cell count,MZ2-MEL,93.5%
same,cell count,MeWo,83.5%
same,cell count,RPMI7951,93.6%
same,cell count,RVH-421,92.6%
"CC1(C)CCC(c2ccc(Cl)cc2)=C(CN2CCN(c3ccc(C(=O)NS(=O)(=O)c4ccc(N[C@H](CCN5CCOCC5)CSc5ccccc5)c(S(=O)(=O)C(F)(F)F)c4)cc3)CC2)C1 + Cc1cn(-c2cc(NC(=O)c3ccc(C)c(Nc4nccc(-c5cccnc5)n4)c3)cc(C(F)(F)F)c2)cn1 [nilotinib] (first compound 2 µM, partner dose 1 µM)",cell count,G361,60.1%
same,cell count,IPC-298,88.6%
same,cell count,IST-MEL1,67.6%
same,cell count,LB2518-MEL,78.8%
same,cell count,LOXIMVI,102%
same,cell count,MEL-HO,65%
same,cell count,MZ2-MEL,74.4%
same,cell count,MeWo,77.3%
same,cell count,RPMI7951,27.9%
same,cell count,RVH-421,44.9%
"O=C(/C=C/c1cccnc1)NCCCCC1CCN(C(=O)c2ccccc2)CC1 + Cc1cc([N+](=O)[O-])ccc1NS(=O)(=O)c1cc(Cl)ccc1Cl [FH535] (first compound 0.05 µM, partner dose 5 µM)",cell count,G361,4.71%
same,cell count,IPC-298,37.5%
same,cell count,IST-MEL1,47.2%
same,cell count,LB2518-MEL,61.4%
same,cell count,LOXIMVI,50.6%
same,cell count,MEL-HO,36.6%
same,cell count,MZ2-MEL,45.8%
same,cell count,MeWo,99.5%
same,cell count,RPMI7951,109%
same,cell count,RVH-421,37.7%
"Cc1ccc(Nc2nccc(N(C)c3ccc4c(C)n(C)nc4c3)n2)cc1S(N)(=O)=O [Pazopanib] + COCC[n+]1c2c(n(Cc3cnccn3)c1C)C(=O)c1ccccc1C2=O [YM155] (first compound 2 µM, partner dose 0.002 µM)",cell count,G361,71.6%
same,cell count,IPC-298,36.6%
same,cell count,IST-MEL1,49.6%
same,cell count,LB2518-MEL,19.8%
same,cell count,LOXIMVI,64.8%
same,cell count,MEL-HO,99%
same,cell count,MZ2-MEL,24.8%
same,cell count,MeWo,34.5%
same,cell count,RPMI7951,60.3%
same,cell count,RVH-421,135%
"O=C(/C=C/c1cccnc1)NCCCCC1CCN(C(=O)c2ccccc2)CC1 + C[C@@H](N)c1ccc(C(=O)Nc2ccnc3[nH]ccc23)cc1 [RKI983] (first compound 0.05 µM, partner dose 2 µM)",cell count,G361,3.64%
same,cell count,IPC-298,13.5%
same,cell count,IST-MEL1,43.1%
same,cell count,LB2518-MEL,27.7%
same,cell count,LOXIMVI,69.6%
same,cell count,MEL-HO,20.1%
same,cell count,MZ2-MEL,11.3%
same,cell count,MeWo,78.3%
same,cell count,RPMI7951,46.9%
same,cell count,RVH-421,18.5%
"CC1(C)CCC(c2ccc(Cl)cc2)=C(CN2CCN(c3ccc(C(=O)NS(=O)(=O)c4ccc(N[C@H](CCN5CCOCC5)CSc5ccccc5)c(S(=O)(=O)C(F)(F)F)c4)cc3)CC2)C1 + COc1cc2c(Oc3ccc4[nH]c(C)cc4c3F)ncnc2cc1OCCCN1CCCC1 [cediranib] (first compound 2 µM, partner dose 2 µM)",cell count,G361,89.4%
same,cell count,IPC-298,126%
same,cell count,IST-MEL1,69.4%
same,cell count,LB2518-MEL,119%
same,cell count,LOXIMVI,30%
same,cell count,MEL-HO,67.6%
same,cell count,MZ2-MEL,103%
same,cell count,MeWo,83.2%
same,cell count,RPMI7951,34.1%
same,cell count,RVH-421,47.4%
"CC1(C)CCC(c2ccc(Cl)cc2)=C(CN2CCN(c3ccc(C(=O)NS(=O)(=O)c4ccc(N[C@H](CCN5CCOCC5)CSc5ccccc5)c(S(=O)(=O)C(F)(F)F)c4)cc3)CC2)C1 + O=c1cc(-c2cccc3c2Sc2ccccc2S3)oc(N2CCOCC2)c1 [KU55933] (first compound 2 µM, partner dose 5 µM)",cell count,G361,54.6%
same,cell count,IPC-298,80.8%
same,cell count,IST-MEL1,54.4%
same,cell count,LB2518-MEL,67.3%
same,cell count,LOXIMVI,44.4%
same,cell count,MEL-HO,52.3%
same,cell count,MZ2-MEL,81.7%
same,cell count,MeWo,83.7%
same,cell count,RPMI7951,35%
same,cell count,RVH-421,66.8%
"O=C(/C=C/c1cccnc1)NCCCCC1CCN(C(=O)c2ccccc2)CC1 + Cc1ccc(NC(=O)c2cccc(N(C)C)c2)cc1NC(=O)c1ccc(O)cc1 [ZM336372] (first compound 0.05 µM, partner dose 10 µM)",cell count,G361,4.98%
same,cell count,IPC-298,50.4%
same,cell count,IST-MEL1,52.7%
same,cell count,LB2518-MEL,59.9%
same,cell count,LOXIMVI,96.3%
same,cell count,MEL-HO,40.4%
same,cell count,MZ2-MEL,35.1%
same,cell count,MeWo,111%
same,cell count,RPMI7951,106%
same,cell count,RVH-421,36.9%
"CC1(C)CCC(c2ccc(Cl)cc2)=C(CN2CCN(c3ccc(C(=O)NS(=O)(=O)c4ccc(N[C@H](CCN5CCOCC5)CSc5ccccc5)c(S(=O)(=O)C(F)(F)F)c4)cc3)CC2)C1 + Cc1cc(N2CCOCC2)cc2[nH]c(-c3c(NC[C@@H](O)c4cccc(Cl)c4)cc[nH]c3=O)nc12 [BMS536924] (first compound 2 µM, partner dose 1 µM)",cell count,G361,63%
same,cell count,IPC-298,86.3%
same,cell count,IST-MEL1,64.3%
same,cell count,LB2518-MEL,65%
same,cell count,LOXIMVI,39.9%
same,cell count,MEL-HO,56.7%
same,cell count,MZ2-MEL,81.6%
same,cell count,MeWo,74.1%
same,cell count,RPMI7951,33.6%
same,cell count,RVH-421,55.7%
"O=C(/C=C/c1cccnc1)NCCCCC1CCN(C(=O)c2ccccc2)CC1 + O=C(Nc1cccc(Cl)c1)Nc1ncc(CCNc2ncnc3ccsc23)s1 [SNS314] (first compound 0.05 µM, partner dose 0.004 µM)",cell count,G361,3.58%
same,cell count,IPC-298,41.9%
same,cell count,IST-MEL1,50.5%
same,cell count,LB2518-MEL,66.4%
same,cell count,LOXIMVI,71.9%
same,cell count,MEL-HO,43.3%
same,cell count,MZ2-MEL,50.1%
same,cell count,MeWo,78.7%
same,cell count,RPMI7951,69.8%
same,cell count,RVH-421,35.7%
"O=C(/C=C/c1cccnc1)NCCCCC1CCN(C(=O)c2ccccc2)CC1 + O=C(CCCCCCC(=O)Nc1ccccc1)NO [vorinostat] (first compound 0.05 µM, partner dose 0.4 µM)",cell count,G361,7.79%
same,cell count,IPC-298,45.9%
same,cell count,IST-MEL1,62.4%
same,cell count,LB2518-MEL,66.3%
same,cell count,LOXIMVI,76.9%
same,cell count,MEL-HO,58.8%
same,cell count,MZ2-MEL,76%
same,cell count,MeWo,82.7%
same,cell count,RPMI7951,69.8%
same,cell count,RVH-421,63%
"CC1(C)CCC(c2ccc(Cl)cc2)=C(CN2CCN(c3ccc(C(=O)NS(=O)(=O)c4ccc(N[C@H](CCN5CCOCC5)CSc5ccccc5)c(S(=O)(=O)C(F)(F)F)c4)cc3)CC2)C1 + Cn1c(=O)n(-c2ccc(C(C)(C)C#N)cc2)c2c3cc(-c4cnc5ccccc5c4)ccc3ncc21 [NVP-BEZ235] (first compound 2 µM, partner dose 0.02 µM)",cell count,G361,35.4%
same,cell count,IPC-298,58.4%
same,cell count,IST-MEL1,62.2%
same,cell count,LB2518-MEL,54.6%
same,cell count,LOXIMVI,25.1%
same,cell count,MEL-HO,41.4%
same,cell count,MZ2-MEL,55.4%
same,cell count,MeWo,59.2%
same,cell count,RPMI7951,19.2%
same,cell count,RVH-421,62.3%
"Cc1ccc(Nc2nccc(N(C)c3ccc4c(C)n(C)nc4c3)n2)cc1S(N)(=O)=O [Pazopanib] + NC1(c2ccc(-c3nc4ccn5c(=O)[nH]nc5c4cc3-c3ccccc3)cc2)CCC1 [MK2206] (first compound 2 µM, partner dose 2 µM)",cell count,G361,88.4%
same,cell count,IPC-298,74.3%
same,cell count,IST-MEL1,107%
same,cell count,LB2518-MEL,67.8%
same,cell count,LOXIMVI,63.4%
same,cell count,MEL-HO,82.9%
same,cell count,MZ2-MEL,76.1%
same,cell count,MeWo,98.8%
same,cell count,RPMI7951,57.4%
same,cell count,RVH-421,76.9%
"O=C(/C=C/c1cccnc1)NCCCCC1CCN(C(=O)c2ccccc2)CC1 + Cc1cn(-c2cc(NC(=O)c3ccc(C)c(Nc4nccc(-c5cccnc5)n4)c3)cc(C(F)(F)F)c2)cn1 [nilotinib] (first compound 0.05 µM, partner dose 1 µM)",cell count,G361,1.77%
same,cell count,IPC-298,37.2%
same,cell count,IST-MEL1,68.3%
same,cell count,LB2518-MEL,57.1%
same,cell count,LOXIMVI,70.6%
same,cell count,MEL-HO,35.6%
same,cell count,MZ2-MEL,35.3%
same,cell count,MeWo,93%
same,cell count,RPMI7951,80.8%
same,cell count,RVH-421,27.5%
"CC1(C)CCC(c2ccc(Cl)cc2)=C(CN2CCN(c3ccc(C(=O)NS(=O)(=O)c4ccc(N[C@H](CCN5CCOCC5)CSc5ccccc5)c(S(=O)(=O)C(F)(F)F)c4)cc3)CC2)C1 + CC(C)(C)c1cnc(CSc2cnc(NC(=O)C3CCNCC3)s2)o1 [SNS-032] (first compound 2 µM, partner dose 0.05 µM)",cell count,G361,71.8%
same,cell count,IPC-298,110%
same,cell count,IST-MEL1,72.5%
same,cell count,LB2518-MEL,50.3%
same,cell count,LOXIMVI,25.7%
same,cell count,MEL-HO,70.3%
same,cell count,MZ2-MEL,81.9%
same,cell count,MeWo,89.5%
same,cell count,RPMI7951,6.45%
same,cell count,RVH-421,73.6%
"CC1(C)CCC(c2ccc(Cl)cc2)=C(CN2CCN(c3ccc(C(=O)NS(=O)(=O)c4ccc(N[C@H](CCN5CCOCC5)CSc5ccccc5)c(S(=O)(=O)C(F)(F)F)c4)cc3)CC2)C1 + Cc1cc([N+](=O)[O-])ccc1NS(=O)(=O)c1cc(Cl)ccc1Cl [FH535] (first compound 2 µM, partner dose 5 µM)",cell count,G361,20.5%
same,cell count,IPC-298,43.1%
same,cell count,IST-MEL1,34.2%
same,cell count,LB2518-MEL,73.5%
same,cell count,LOXIMVI,95%
same,cell count,MEL-HO,17.8%
same,cell count,MZ2-MEL,62.2%
same,cell count,MeWo,54%
same,cell count,RPMI7951,27.3%
same,cell count,RVH-421,30.2%
"Cc1ccc(Nc2nccc(N(C)c3ccc4c(C)n(C)nc4c3)n2)cc1S(N)(=O)=O [Pazopanib] + Cn1c(Nc2ccc(C(F)(F)F)cc2)nc2cc(Oc3ccnc(-c4ncc(C(F)(F)F)[nH]4)c3)ccc21 [CHIR265] (first compound 2 µM, partner dose 0.4 µM)",cell count,G361,34.8%
same,cell count,IPC-298,44.5%
same,cell count,IST-MEL1,94.8%
same,cell count,LB2518-MEL,34.5%
same,cell count,LOXIMVI,65%
same,cell count,MEL-HO,59.7%
same,cell count,MZ2-MEL,57.6%
same,cell count,MeWo,69.9%
same,cell count,RPMI7951,31.5%
same,cell count,RVH-421,72.6%
"O=C(/C=C/c1cccnc1)NCCCCC1CCN(C(=O)c2ccccc2)CC1 + COc1ccc2c(c1)CCC1C2CCC2(C)C(NCCCCCCN3C(=O)C=CC3=O)CCC12 [U73122] (first compound 0.05 µM, partner dose 2 µM)",cell count,G361,3.56%
same,cell count,IPC-298,39.3%
same,cell count,IST-MEL1,56.5%
same,cell count,LB2518-MEL,60.9%
same,cell count,LOXIMVI,59.2%
same,cell count,MEL-HO,34.4%
same,cell count,MZ2-MEL,24.6%
same,cell count,MeWo,69.8%
same,cell count,RPMI7951,32%
same,cell count,RVH-421,42.9%
"O=C(/C=C/c1cccnc1)NCCCCC1CCN(C(=O)c2ccccc2)CC1 + Oc1cc(-c2nc(-c3ccccc3)[nH]c2-c2ccncc2)ccc1Cl [L779450] (first compound 0.05 µM, partner dose 1 µM)",cell count,G361,15.6%
same,cell count,IPC-298,41.6%
same,cell count,IST-MEL1,57.7%
same,cell count,LB2518-MEL,66.9%
same,cell count,LOXIMVI,57.3%
same,cell count,MEL-HO,39.2%
same,cell count,MZ2-MEL,42.6%
same,cell count,MeWo,96.1%
same,cell count,RPMI7951,98.7%
same,cell count,RVH-421,63.5%
